Assay results reported in article PMC6919601, “Identification of Plasmodium dipeptidyl aminopeptidase allosteric inhibitors by high throughput screening” (PLoS ONE, 2019).
“And” between values parts separate entries of the source, which are not always exact repeats. Equal values may be shown once. In all, about 110,000 compounds went through this assay and about 230 (0.21%) showed an effect of 50% or more. This is one part of the list.

Target: DPAP1 (Plasmodium falciparum, UniProt Q8IIJ9)
Assay: primary screen, percent inhibition; read by cleavage of a fluorogenic dipeptide substrate; higher = more effect of the substance
Parameters: species or system P. falciparum D10 trophozoite lysates; single well
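Further: 30 min substrate incubation versus DMSO and 10 µM JCP410 controls.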

Sequence of DPAP1 (Q8IIJ9 whole entry, looked up): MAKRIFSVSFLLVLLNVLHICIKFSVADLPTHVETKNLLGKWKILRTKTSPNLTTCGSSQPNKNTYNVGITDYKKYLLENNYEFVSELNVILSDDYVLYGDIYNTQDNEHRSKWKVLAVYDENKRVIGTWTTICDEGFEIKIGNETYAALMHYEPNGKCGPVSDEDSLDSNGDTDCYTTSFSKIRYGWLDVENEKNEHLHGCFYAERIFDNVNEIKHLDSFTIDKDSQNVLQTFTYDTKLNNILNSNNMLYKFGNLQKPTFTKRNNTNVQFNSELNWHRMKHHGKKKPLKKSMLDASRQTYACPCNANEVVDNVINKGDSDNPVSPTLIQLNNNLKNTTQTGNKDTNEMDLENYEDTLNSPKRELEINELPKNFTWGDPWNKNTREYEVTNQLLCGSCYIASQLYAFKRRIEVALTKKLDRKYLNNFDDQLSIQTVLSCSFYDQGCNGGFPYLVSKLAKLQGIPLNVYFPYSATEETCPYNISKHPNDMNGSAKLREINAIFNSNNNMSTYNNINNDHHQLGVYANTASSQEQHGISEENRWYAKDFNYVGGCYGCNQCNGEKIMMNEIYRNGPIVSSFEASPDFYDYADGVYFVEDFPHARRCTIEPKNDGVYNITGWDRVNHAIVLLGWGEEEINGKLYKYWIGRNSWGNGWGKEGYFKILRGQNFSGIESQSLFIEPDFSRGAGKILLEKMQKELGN

SMILES | % Inhibition @ 10 uM
COc1ccccc1CNC(=O)c1nnn(Cc2ccc(SC)cc2)c1N | 1.26%
Cc1ccc(-c2cc(C(=O)NC3CC3)c3ccccc3n2)cc1C | 1.16%
C=CCn1c(SCc2ccc(C(=O)NCCO)cc2)nc2sc3c(c2c1=O)CCCC3 | 2.7%
CCN(CC(O)c1cccc(O)c1)c1ncnc2c1cnn2C (centres unmarked) | 0.426%
COCCCNC(=O)Cn1c(=O)n(Cc2ccccc2)c(=O)c2c3c(sc21)CCC3 | -0.668%
CC1CC(C)CN(C(=O)C2CCCN2c2nnc(N3CCCC3=O)s2)C1 (centres unmarked) | 0.623%
O=C(CSc1nc(-c2cccc(Cl)c2)[nH]c1-c1ccccc1)NCC1CCCO1 (centres unmarked) | -1.58%
COc1ccc(S(=O)(=O)N(CC(=O)Nc2ccc3c(c2)OCO3)c2ccccc2)cc1 | -0.641%
CN(Cc1ccccc1)C(=O)c1cnc2ccc(S(=O)(=O)N3CCOCC3)cc2c1O | 1.76%
CCc1ccc(/C(O)=C/C=N/c2ccc(NC(C)=O)cc2)cc1 | 0.722%
Cc1ccc(C(=O)NCC2CCCO2)cc1C (centres unmarked) | -5.13%
N#CC1=C(N)Oc2c(ccc3ccccc23)C1c1cccc(C(F)(F)F)c1 (centres unmarked) | 3.95%
Cc1n[nH]c(C)c1CCc1nc2c3ccccc3nc(SCC(N)=O)n2n1 | 4.65%
CC1N(O)C(C)(C)C(c2ccc(F)cc2)=[N+]1[O-] (centres unmarked) | 1.84%
CN(C)CCN(Cc1ccccc1)c1nccc(N(C)C)c1C#N | -6.29%
CCCC1CCc2c(sc(NC(=O)Cc3ccc(OC)c(OC)c3)c2C(N)=O)C1 (centres unmarked) | -7.01%
Cc1ccc(CCNC(=O)CNC(=S)N(Cc2ccccc2)Cc2cccnc2)cc1 | -5.8%
c1ccc2sc(NC3=NCN(CCN4CCOCC4)CN3)nc2c1 | -4.62%
COc1cc2c(C(=O)NCc3ccc(F)cc3)cn(C)c(=O)c2cc1OC | -4.86%
NS(=O)(=O)c1ccc(NC(=O)c2ccc(Cl)cc2Cl)cc1 | 0.847%
Cc1ccc(S(=O)(=O)c2cc3c(=O)n4cccc(C)c4nc3n(CCOCCO)c2=N)cc1 | 5.12%
O=[N+]([O-])c1ccc(CN2CCN(Cc3ccccc3)CC2)s1 | 4.67%
Cc1nc2c(C(=O)NCCC(C)C)cnn2c(C)c1Cc1ccccc1Cl | -4.06%
Cc1c(C)c2cc3c(c(C)c2oc1=O)OCN(Cc1ccco1)C3 | 4.13%
Cc1[nH]c2ccc(F)cc2c1CCN(Cc1ccccn1)C(=S)NC(C)(C)C | 1.23%

SMILES | % Inhibition @ 10 uM
Cc1ccc(C)c(S(=O)(=O)Nc2ccc(C(=O)N3CC(C)OC(C)C3)cc2)c1 (centres unmarked) | -4.63%
CCOc1cc(CN2CCC(Cc3ccccc3)CC2)ccc1O | -8.13%
Cc1ccc(S(=O)(=O)N(CC(=O)N2CCC(C)CC2)c2ccc(Cl)cc2)cc1 | -1.92%
O=C(c1ccccc1)N1CCN(C(=O)c2ccc(Br)cc2)CC1 | -0.48%
CCN1CCCC1CNC(=O)CCc1nnc2n(Cc3ccc(F)cc3)c(=O)c3ccccc3n12 (centres unmarked) | -0.692%
CC1(N2CCOCC2)C(=O)c2ccccc2C1=O | -2.09%
C=CCc1ccccc1OCCOc1ccc(/C=C2/C(=N)N3OC(C)=CC3=NC2=O)cc1OC | 6.73%
O=C1NC(=S)NC(=O)C1=Cc1ccc2c(c1)OCO2 | -2.63%
CC(C)CCNC(=O)c1cc(O)nc2ccc(Br)cc12 | 3.24%
Cc1nn(-c2cccc(Cl)c2)c(O)c1/C=N/c1ccc(SC#N)cc1 | -8.72%
O=C(CCCCC(=O)Nc1ccc(F)cc1)Nc1ccc(F)cc1 | -0.366%
CCc1[nH]nc2c1C(c1ccc(OC)cc1OC)C(C#N)=C(N)O2 (centres unmarked) | 0.121%
Cc1sc(NC(=O)CCC(=O)O)nc1-c1ccc(Cl)cc1 | -1.55%
COc1cccc(CNCc2cccc(F)c2)c1OC | 4%
COc1ccc(C(=N)NOC(=O)c2c(-c3ccccc3Cl)noc2C)cc1 | 18.5%
COC(=O)c1noc(-c2ccc(Cl)cc2)n1 | 0.032%
COc1cc(NC(=O)C23CC4CC(C2)CC(n2cnc(Cl)n2)(C4)C3)c(C(C)=O)cc1OC | 14.4%
Cc1nc2cc(C(=O)c3ccccc3)ccc2nc1O | -5.44%
CCOC(=O)c1c(NC(=O)CN2CCCCC2)sc2c1CCC2 | 3.32%
N=C1/C(=C\c2ccc(Sc3cccc4ccccc34)o2)C(=O)N=C2SC=NN12 | 2.14%
CC(C)CCNc1nc2ccccc2n2cnnc12 | -4.21%
CC1CCc2cc(F)ccc2N1C(=O)/C=C/c1ccc(Cl)c(Cl)c1 (centres unmarked) | -4.03%
CNCC(O)CN1CCN(c2ccc([N+](=O)[O-])cc2)CC1 (centres unmarked) | 2.33%
CC1=C(C#N)C(c2ccc3c(c2)OCO3)C2=C(O)CC(c3ccccc3)CC2=N1 (centres unmarked) | 0.751%
COCCN1C(=O)c2ccccc2C(C(=O)NCCN2CCOCC2)C1c1cn(C)c2ccccc12 (centres unmarked) | 3.51%

SMILES | % Inhibition @ 10 uM
O=C(c1nn2c(c1Cl)NC(c1cccs1)CC2C(F)(F)F)N1CCCC1 (centres unmarked) | -1.06%
Cc1ccc(-c2c(C)n3c4c(=O)n(C)c(=O)n(C)c4nc3n2C(C)C)cc1 | -1.85%
CCc1ccc2ncc(S(=O)(=O)c3ccc(OC)cc3)c(N(CC)CC)c2c1 | -3%
CCOC(=O)c1c(NC(=O)Cc2ccc(OC)cc2)sc(C(=O)NC2CCCCC2)c1C | 0.565%
CC1CN(Cc2ccc(F)cc2F)CC(C)O1 (centres unmarked) | -0.833%
CCCC(=O)n1nc(-c2cccnc2)nc1NCc1ccc(F)cc1 | -2.92%
Cc1nc2c(C(=O)N3CCCC(C)C3)cnn2c(C)c1Cc1ccc(Cl)cc1 (centres unmarked) | -0.519%
O=C(CCNS(=O)(=O)c1cccs1)NC1CCN(Cc2ccccc2)CC1 | 4.79%
Cc1nc2c(C(=O)n3ccnc3)cnn2c(C)c1Cc1ccccc1Cl | -0.406%
CCc1cccc(CC)c1NC(=O)C1CCN(S(C)(=O)=O)CC1 | -9.82%
CCCN(CCC)c1nc(N)nc(-c2cc(Cl)ccc2OC)n1 | -2.29%
CCOC(=O)c1ccc(-n2nnnc2C(C)(CN2C(=O)c3ccccc3C2=O)NC)cc1 (centres unmarked) | 7.99%
O=C(c1ccc(F)cc1)N1CCN(Cc2cccc3ccccc23)CC1 | -1.19%
Cc1c(Br)c(C(=O)Nc2sc(C(C)C)cc2C(N)=O)nn1C | -1.36%
CCOc1ccc(N2C(=O)CC(Sc3nc(O)c(CC)c(O)n3)C2=O)cc1 (centres unmarked) | -0.318%
Cc1oc(CSc2nnc(-c3ccccc3)n2C)cc1C(=O)O | -2.39%
CC1=NOC(=O)/C1=C\c1ccc2c(c1)OCO2 | 1.63%
CCOC(=O)c1cc2c(nc1C)c(C)cc1c(C)c(C)[nH]c12 | 1.76%
O=C1c2ccccc2C(=O)N1c1cccc(Cl)c1Cl | 3.91%
Cc1ccnc(NC(=O)c2ccc(C(C)(C)C)cc2)n1 | 2.93%
c1ccc(Cc2nc3ccccc3o2)cc1 | -0.0369%
CC1=C(C(=O)N2CCCCC2)C(c2ccc(Cl)cc2)C2=C(O)CCCC2=N1 (centres unmarked) | -1.48%
Cc1onc(-c2ccccc2)c1C(=O)Nc1nc2c(s1)CCCC2 | -1.49%
C=CCn1cnc2c1c(=O)[nH]c(=O)n2C | -1.72%
O=C(Nc1ccccn1)C(NS(=O)(=O)c1cccc2nsnc12)c1ccccc1 (centres unmarked) | 0.317%

SMILES | % Inhibition @ 10 uM
O=C(Cn1cc2c(n1)CCCC2)N1CCN(Cc2ccccc2)CC1 | 0.137%
COc1ccc(S(=O)(=O)N2CCN(S(=O)(=O)c3ccccc3)CC2)cc1 | -3.4%
Cc1cccn2cc(CNC(=O)Cc3ccc(Cl)cc3)nc12 | 0.00665%
CCC(C)C(NC(=O)c1ccc(Cl)cc1Cl)C(=O)O (centres unmarked) | -7.14%
CC[C@H](C)C(NC(=O)C1CCNCC1)C(=O)NC(CCc1ccccc1)C(=O)CO (some centres unmarked) | -5.64% and 3.66%
Cc1nn(-c2ccccc2)c2c1N(CCCC(=O)NCCC1=CCCCC1)C(=O)CS2 | 1.63%
CC(C)(C)c1ccc(OCc2nn3c(C(F)(F)F)nnc3s2)cc1 | -1.07%
O=C(O)c1[nH]c2ccccc2c1/C=N/Cc1ccccc1Cl | -0.406%
Cc1ccc(C(=O)N/C(=C/c2ccco2)C(=O)NC2CCCCC2)cc1 | -5.32%
O=C(CN1C(=O)C2C3CCC(C3)C2C1=O)Nc1cccc(C(=O)O)c1 (centres unmarked) | 3.29%
Cc1cc(C)c(NC(=O)/C=C2\NC(C)(C)Cc3ccccc32)c(C)c1 | 1.87%
Cc1ccc(C2C(C(=O)c3ccc4c(c3)OCCO4)=C(O)C(=O)N2CC2CCCO2)cc1 (centres unmarked) | -0.473%
c1ccc(N2CCN(c3ncnc4sc5c(c34)CCCC5)CC2)nc1 | -3.63%
Fc1ccccc1N1CCN(C2CCSC2)CC1 (centres unmarked) | -0.0908%
CC(C)OCCCNC(=O)C(NC(=O)c1ccc(C23CC4CC(CC(C4)C2)C3)cc1)C(C)C (centres unmarked) | -0.972%
CC(=O)c1ccc(N2CCN(C(=O)c3cc(F)c(F)cc3C)CC2)c(F)c1 | -0.0619%
Cc1cccc(-c2nc(O)c3c4c(sc3n2)CCCC4)c1 | 39.3%
CC(C)C[C@H](NC(=O)c1ccccc1NC(=O)OC(C)(C)C)C(=O)NCC#N | 0.174%
CNc1nc2c(-c3ccc(Cl)cc3)nnn2c2ccccc12 | -1.21%
N#CCNC(=O)[C@H](CC1CCCCC1)NC(=O)c1ccc(Br)s1 | -3.49%
Cc1ccccc1OCC(=O)Nc1ncc(Cc2ccc(Br)cc2)s1 | -1.26%
COc1ccccc1N1CCN(C(=O)c2ccccc2)CC1 | 3.48%
Cc1nc(O)c2c3c(sc2n1)CCCCC3 | 0.00773%
